In the RNAGym collection of RNA variant scans (doi:10.7554/elife.90254):
Read counts are not given, so values of variants with three or more changes are uncertain.

B1: OR4K15 (parent)
chain: GUUAACGGUCAUAGGCCAUGGAAACUAGGAGCACCAUUUCGCUGCCAGUGAAGAAAUGAACAAAGAAAAUCUGGGCCAGGCAGGCAUCAAAAGAAAUAGUCUUGCGCUCAACCAGAAAGUCUGUAAUCAUUUUAAGGGUA

Variants of: B1
Assay: self-cleavage, relative activity (ratio to wild type); higher = more cleavage; in vitro, sequencing; the parent is a self-cleaving ribozyme
Variant U2C A56C A59G has a self-cleavage of 1.25. A4G A51G A59G G83A gave a self-cleavage of 1.55. For U43A U49A U100A, the self-cleavage was 0.71. Work on A54G A94G A114G yielded a self-cleavage of 0.22. U43C A52G C113U A125G U130C gave a self-cleavage of 0. With A33G A66G A67G G73A G75A the self-cleavage was 0.13. U9C A117U A126G showed a self-cleavage of 0.84. With A18G C40U A51G A63G C76U the self-cleavage was 0.09. A27G U43C A78U A117G gave a self-cleavage of 0.48. A4G A30G A54G U87A A135G showed a self-cleavage of 0.84. In the case of U43C A47U A52G A69U U100C, the self-cleavage is reported as 1.33. Work on A52G A116G U127C yielded a self-cleavage of 0.39. A66G A78C A89G showed a self-cleavage of 0.36. With A90G A98G A117C the self-cleavage was 0.35. A33G U49A U130C showed a self-cleavage of 0.31. For U102C A110G U130C, the self-cleavage was 0.12. A23G A24U A69G A82C U130C gave a self-cleavage of 0.05. A24G U38C A78G U132C gave a self-cleavage of 0.34. For A5C A67G A98G U122C, the self-cleavage was 0.56. For A36G U43C A64G U100G, the self-cleavage was 1.52. In the case of A18G U37C A116G, the self-cleavage is reported as 1.04. Work on A56G A78G U102C yielded a self-cleavage of 0.26. U2A A52C U70A A78U gave a self-cleavage of 0.39. In the case of A30U A52G U108C A135G A140G, the self-cleavage is reported as 0.01. With A11U U39A A55G the self-cleavage was 1.23. U9C A92G A98G showed a self-cleavage of 0.38. Variant A22G U37C A90G has a self-cleavage of 0.53. Work on A11U C46U U57A U102C yielded a self-cleavage of 0.79. With U37C U70C U139C the self-cleavage was 0.96. Work on A54G A62U A66U yielded a self-cleavage of 2.17. Variant U38C A51G A66G A69G U87A U124C has a self-cleavage of 0.73. U39C A98G G99C A116G A126G gave a self-cleavage of 0.54. In the case of U2C U102A A114U, the self-cleavage is reported as 0.15. G7A A22G A23G A59G G74C A95C gave a self-cleavage of 0.15. Work on U39C G83A A90G G99A yielded a self-cleavage of 0.83. Work on U43C A64U C109U yielded a self-cleavage of 0.5. With U2C U38C A96G the self-cleavage was 1.78. With A60G A69G A95G G115A the self-cleavage was 0.06. Variant A11G A22G A86U has a self-cleavage of 1.31. A52G U57C U131C showed a self-cleavage of 0.11. Variant A51G U100A C107U has a self-cleavage of 0.01. Work on A22G U43A A111G yielded a self-cleavage of 0.09. With U49C A51G G65A A90G A96G A134G the self-cleavage was 0.8. With U43A A55G U127C the self-cleavage was 0.41. For A30G A92G U131C, the self-cleavage was 0.81. In the case of C42U A68U C109U, the self-cleavage is reported as 0.29. G15A U37A U122A gave a self-cleavage of 1.05. In the case of A4U U49C A126C, the self-cleavage is reported as 1.06. For C61U A67G A86U, the self-cleavage was 1.41. U49A G73A C109U U122C U132C showed a self-cleavage of 0.03. Work on A18U A33G A67G G80A G93A yielded a self-cleavage of 0.13. In the case of G15A G29A C76U A96G A111G, the self-cleavage is reported as 0.02. U9A G29A A60G U72A showed a self-cleavage of 0.18. Work on A78U G83U A125G U130C yielded a self-cleavage of 0.01. Variant U103C A111G A114U A116G A125G has a self-cleavage of 0. In the case of U39C U108A A110G A114U A118G, the self-cleavage is reported as 0. U3C A22G A92G showed a self-cleavage of 0.79. For A33G A51U U70A, the self-cleavage was 0.64. Work on A13G A33G A59G A69G yielded a self-cleavage of 0.65. Variant A23G A24U U87A U132C has a self-cleavage of 1.06. For U9C A36G A140G, the self-cleavage was 1.49. In the case of U43C A60G A63G A68G, the self-cleavage is reported as 1.33. Work on A24G U108C A126G yielded a self-cleavage of 0.01. Work on A24C A67G A110G yielded a self-cleavage of 0.17. A11G A13G U49C A55G A60G A114U gave a self-cleavage of 0.05. Work on U43A G53U A68G A82U U87C U108A yielded a self-cleavage of 0.02. A24G A67G A95G A118G gave a self-cleavage of 1.86. U39C A91G G115U showed a self-cleavage of 0.13. Variant U12A A92C U102C has a self-cleavage of 2.04. Variant U9C A92G U122C has a self-cleavage of 1.31. Work on A11U A91G U100C A126G yielded a self-cleavage of 1.44. Variant A11G A33G A52G A56G U108C A114G G136A has a self-cleavage of 0.03. U9A A27U A68G A82G G106U A126G showed a self-cleavage of 0. A24C A52C U70C showed a self-cleavage of 0.62. A55G A66G U72C A96G U108C A117G gave a self-cleavage of 0.02. For A11U A111G A126G U127C A140G, the self-cleavage was 0.01. In the case of U37C A110G C113U G138A, the self-cleavage is reported as 0.03. A118G U122C U130C showed a self-cleavage of 0.57. In the case of A51G U72A A135G, the self-cleavage is reported as 0.18. In the case of A22U U37C A82G, the self-cleavage is reported as 0.19. U39A U49C U139A showed a self-cleavage of 0.63. In the case of A18U A23C U39A C40U U97C, the self-cleavage is reported as 1.42. U87C U103C A116G A118G showed a self-cleavage of 0.23. For C6U U43A U72A A95G A116G U130A, the self-cleavage was 0.08. With U12C U127C U132C the self-cleavage was 0.8. A13G A22G A82G showed a self-cleavage of 0.13. For U12C U37C U38C A60C U108C A110G U130C, the self-cleavage was 0.01. A23G U49C A51G G84A gave a self-cleavage of 1.59. With A18G A82G U122C A126G the self-cleavage was 0.75. A13U A54G U57C A98G A110G U120C showed a self-cleavage of 0.04. Work on A5U A55G G106A U108A yielded a self-cleavage of 0.07. In the case of G15A A62G A91C A94U C128A, the self-cleavage is reported as 0.7. U39C A63G A116G A126G gave a self-cleavage of 0.79. With A59G U70C U72C A110G the self-cleavage was 0.13. For U39C U122C U131C, the self-cleavage was 0.48. Work on A18G A66U U87C A89G yielded a self-cleavage of 1.58. A51G U57C U122C showed a self-cleavage of 1.07. A27U U49A U108C U133C showed a self-cleavage of 0.01. U26A A33U A126G gave a self-cleavage of 1.25. For A59G A86G U102C U103C A116G A117G A118C, the self-cleavage was 0. A22U A111U A114U gave a self-cleavage of 0.02. In the case of U9C A23G A94U, the self-cleavage is reported as 1.74. Work on A33G A114U A116U yielded a self-cleavage of 0. Variant A13U A24G A68G U70C has a self-cleavage of 0.85. For A33U A92U U108C, the self-cleavage was 0.01. For A62U U72G U87C U122G, the self-cleavage was 0.18. Work on U43C A47G A82U yielded a self-cleavage of 0.17. For U9C A55G A110U, the self-cleavage was 1.48. U9C U12C A22G A24G A78G U103C showed a self-cleavage of 0. With U12C A18G A36G C40A A68G U97C the self-cleavage was 0.86. With A66G A67G C81U U120C the self-cleavage was 0.49. In the case of U19C U39C A111G A117G, the self-cleavage is reported as 0. With U2C A59G G93A A96G the self-cleavage was 1.74. Work on U37C A62U A67U A114U yielded a self-cleavage of 0.23. For A90G A118U A126G U132C, the self-cleavage was 0.11. With A56G A68G C88A U102A A125G the self-cleavage was 0.13. U72A A91G U127C U139C gave a self-cleavage of 0.04. G8U C16U U87C A91G U102A gave a self-cleavage of 0.73. With U9C A23G A60G U97A the self-cleavage was 1.55. In the case of A33U U39C A66G U108C, the self-cleavage is reported as 0.03. With U9G A67U A86U the self-cleavage was 0.94. A92G A116G U131C gave a self-cleavage of 0.26. With A56G U120C U124A the self-cleavage was 0.25. A5G U9C A22U U100C gave a self-cleavage of 1.6. In the case of A95G A116U U133C, the self-cleavage is reported as 1.09. For A78G A94G U102A A140G, the self-cleavage was 0.03. For A54G A60U A69G U120C, the self-cleavage was 0.67. G8U C61U A68C A110G showed a self-cleavage of 0.31. With U39C A91G A135G the self-cleavage was 1.53. Work on U3A A56G U127C U130C yielded a self-cleavage of 0.88. U12C C40A G74A showed a self-cleavage of 0.25. Variant A59G A94G A111G has a self-cleavage of 0.02. Variant A47U A56G A67G A78G A98G U108C U127C has a self-cleavage of 0. In the case of C40U A56C A110G, the self-cleavage is reported as 0.06. A47U A54G A66U A98G gave a self-cleavage of 0.05. Variant U9A C25U A78G has a self-cleavage of 0.28. A13G A92G U97A A118G showed a self-cleavage of 0.57. G80A U102A U103C A117G showed a self-cleavage of 0.04. G14A A66G U72C showed a self-cleavage of 0.19. For A5G A22U A126G, the self-cleavage was 0.09. Work on U49C A94G A118G yielded a self-cleavage of 0.8. Work on A24G A52G A63G yielded a self-cleavage of 1.26. Work on A11U A95G U127C G136U yielded a self-cleavage of 0.92. A11U U108C A116U showed a self-cleavage of 0.01. C10U U87A A92G U120C showed a self-cleavage of 0.5. With G21A U57C G73A the self-cleavage was 0.14. Work on C88U A91G U124C yielded a self-cleavage of 1.53. A55G A60G A86G U130C gave a self-cleavage of 0.72. In the case of A11G A54G A67G, the self-cleavage is reported as 1.55. In the case of A24G A36G A56U A94C, the self-cleavage is reported as 1.15. Work on A5G A67U U108C yielded a self-cleavage of 0.02. U49A U108C U127C G136U showed a self-cleavage of 0. U87C A111U U120C showed a self-cleavage of 0.01. A51G U57A A62U gave a self-cleavage of 1.42. In the case of A22U U70C U124A, the self-cleavage is reported as 0.07. In the case of A23G U38C U72A U139C, the self-cleavage is reported as 0.26. A11G A78C U131C gave a self-cleavage of 0.27. In the case of U39A A51G A82G U87C, the self-cleavage is reported as 0.7. Work on U9C U19C U39A yielded a self-cleavage of 1.74. For A13U A24C A89G, the self-cleavage was 0.84. Variant U12C C42U U87C A125G has a self-cleavage of 0.24. In the case of A59G A82U A90G A111G U120C, the self-cleavage is reported as 0.01. In the case of G7A U9A A60G A96G A111G A117U A118G, the self-cleavage is reported as 0.01. In the case of A117U U124C U130C, the self-cleavage is reported as 0.36. In the case of U3C A60G A63G U120C U139C, the self-cleavage is reported as 0.47. U43A A91G U102C U132C gave a self-cleavage of 2.02. A55G A68U U120C gave a self-cleavage of 0.82.
